Among the data in PubChem BioAssay AID360 (National Center for Advancing Translational Sciences (NCATS), 2006) are Potency values, retold here.

Out of some 48,000 compounds screened, about 550 (1.1%) were called active. Not shown: some 4% with an inconclusive outcome. Cut-off read from the data, not from the text of the source: active = potency below about 15 µM; inconclusive = mostly about 16 µM to 33 µM; inactive = weaker than that. Some of the results follow.
Potency is the fitted concentration of half-maximal effect.

Sequence of UniProt P04062 (P04062 whole entry, looked up): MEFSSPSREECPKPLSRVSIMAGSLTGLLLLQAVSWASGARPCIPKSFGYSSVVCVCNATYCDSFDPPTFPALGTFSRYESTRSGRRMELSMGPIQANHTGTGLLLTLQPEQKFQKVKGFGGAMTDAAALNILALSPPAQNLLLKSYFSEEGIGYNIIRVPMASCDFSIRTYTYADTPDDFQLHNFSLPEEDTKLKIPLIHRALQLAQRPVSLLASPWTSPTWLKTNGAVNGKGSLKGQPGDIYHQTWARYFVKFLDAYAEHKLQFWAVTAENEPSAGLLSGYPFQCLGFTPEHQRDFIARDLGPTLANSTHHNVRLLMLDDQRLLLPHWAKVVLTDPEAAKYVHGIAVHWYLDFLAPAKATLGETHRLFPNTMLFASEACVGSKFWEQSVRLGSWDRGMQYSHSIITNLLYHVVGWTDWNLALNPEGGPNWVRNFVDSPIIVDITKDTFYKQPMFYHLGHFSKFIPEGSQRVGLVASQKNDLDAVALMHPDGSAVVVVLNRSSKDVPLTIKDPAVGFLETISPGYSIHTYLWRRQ

The target in this assay is Lysosomal acid glucosylceramidase (Homo sapiens) (UniProt P04062). Description: Glucocerebrosidase.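 Note: the screen sought inhibitors.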 As to conditions: purified enzyme, resorufin glucoside fluorescence (screen aimed at inhibitors), 20 min. In a few lines:
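Wild-type enzyme at 0.2 nM final in 50mM citric acid/KH2PO4, 10mM sodium taurocholate, 0.01% tween-20, pH 5.9, with resorufin beta-D-glucopyranoside at 30 uM final. Compounds titrated, 20 min at RT, red fluorescence read; AC50 from titration.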
Turning to `COc1cc2c(C(=O)N3CCN(C)CC3)c(C)n(C)c2cc1Br`, the Potency was inactive: > 76.9 µM.
Then `Cc1ccc(Cn2nnnc2CN2CCC(n3nnc4cc(C)ccc43)CC2)cc1`, with inactive: > 76.9 µM; and `CCC(=O)OC1(c2cccc(C)c2)CC(C)N(C)CC1C` (stereo not given), with inactive: > 76.9 µM.
With `CCOC(=O)c1c(N)n(CCCOC(=O)c2ccco2)c2nc3ccccc3nc12` the figure was inactive: > 76.9 µM; with `CCn1c(=O)cc(SCC(=O)N2CCC3(CC2)OCCO3)c2ccccc21`, inactive: > 76.9 µM.
Then `Cc1cccc(NC2=NCCCS2)c1C`, with inactive: > 76.9 µM; and `Cn1nc(N)c2c1N=P(N1CCOCC1)(N1CCOCC1)N=C2c1ccccc1`, with inactive: > 76.9 µM.
Turning to `COC(=O)C(O)(c1ccc2c(c1)CCCN2)C(F)(F)F` (stereo not given), the Potency is inactive: > 76.9 µM.
With `Cc1ccc2nc3c(cc2c1)CC1(C(=O)N(C)C(=O)N(C)C1=O)C1CCCCN31` (stereo not given) the figure was inactive: > 76.9 µM; with `Cc1ccc(C2(O)CCN3CCCCC32)cc1` (stereo not given), inactive: > 76.9 µM.
With `COC(=O)C(O)(c1cn(C)c2ccccc12)C(F)(F)F` (stereo not given) the figure was inactive: > 76.9 µM.
Take `O=C1C2CCCN2C(c2cccnc2)N1c1ccc(Cl)c(Cl)c1` (stereo not given): the Potency was inactive: > 76.9 µM.
With `CC1(C)C(C(=O)NCc2ccco2)C1(C)C`, the Potency was inactive: > 76.9 µM.
With `CN(C)CC#CCOCCOCCC#N` the figure was inactive: > 76.9 µM; with `Cn1c(C(=O)O)c(CC(=O)N2CCN(Cc3ccccc3)CC2)c2ccccc21`, inactive: > 76.9 µM; with `Cc1ccc(Cl)cc1-n1c(O)c(C=NCCCN2CCOCC2)c(=O)[nH]c1=O`, inactive: > 76.9 µM.
Then `CCCC1(CCC)C(=O)NC(=NCc2ccccc2)NC1=O`, with inactive: > 76.9 µM.
With `C=CCn1c(O)c(C(CC)=NCc2cc(OC)cc(OC)c2)c(=O)[nH]c1=O` the figure was inactive: > 76.9 µM.
In the case of `Cc1cc(C(=O)N2CCC3(CC2)OCCO3)cs1`, the Potency was inactive: > 76.9 µM.
Then `COc1ccc(OC)c(CC(=O)O)c1`, with inactive: > 76.9 µM; and `O=C(CCCCCn1c(=S)[nH]c2ccccc2c1=O)N1CCC2(CC1)OCCO2`, with inactive: > 76.9 µM.
Then `COc1ccc(-c2nc(CS(=O)CC(=O)N3CCC4(CC3)OCCO4)c(C)o2)cc1` (stereo not given), with inactive: > 76.9 µM.
With `CCCCn1c(O)c(C(CC)=NCc2ccc3c(c2)OCO3)c(=O)[nH]c1=O` the figure was inactive: > 76.9 µM; with `COc1ccc(CN2CCN(Cc3ccccc3)CC2)c(OC)c1`, inactive: > 76.9 µM.
As to `CCOC(=O)CC1=C(C(=O)OCC)C2(C(=O)N1)C(C(=O)OC)=C(N)Oc1ccccc12` (stereo not given), the Potency was inactive: > 76.9 µM.
As for `CCN(CC)CCN=Cc1c(O)n(CCC2=CCCCC2)c(=O)[nH]c1=O`, the Potency was inactive: > 76.9 µM.
Then `C=Cn1ccnc1P(=S)(c1ccc(N(C)C)cc1)c1nccn1C=C`, with inactive: > 76.9 µM; and `CC1CN=C(NCc2ccncc2)S1` (stereo not given), with inactive: > 76.9 µM.
With `CCOC(=O)c1ccc(N2C(=O)CC(N3CC=C(c4ccc(F)cc4)CC3)C2=O)cc1` (stereo not given) the figure was inactive: > 76.9 µM.
For the molecule `O=c1[nH]c(=O)n(Cc2ccc(F)cc2)c(O)c1C=NCC1CCCO1` (stereo not given), the Potency was inactive: > 76.9 µM.
Regarding `Fc1ccc2c(c1)nnn2C1CCN(Cc2ccccc2)CC1`, the Potency was inactive: > 76.9 µM.
With `CCC(=NCc1ccco1)c1c(O)n(Cc2ccccc2)c(=O)[nH]c1=O` the figure was inactive: > 76.9 µM; with `CN(C)c1nc(OCCNC(=O)COc2ccc(Cl)cc2Cl)nc(N2CCCCC2)n1`, inactive: > 76.9 µM.
Then `COc1ccc(OCC(=O)N2CCN(CC3CC4C=CC3C4)CC2)cc1` (stereo not given), with inactive: > 76.9 µM.
With `CN1CCC(O)(c2ccccc2)C2CCCC21` (stereo not given) the figure was inactive: > 76.9 µM.
With `CCC(C)(C)n1nnnc1C(c1cccs1)N1CC=C(c2ccc(F)cc2)CC1` (stereo not given), the Potency is inactive: > 76.9 µM.
`Cc1nc2ccccc2c(=O)n1-c1cccnc1`: the Potency is inactive: > 76.9 µM.
With `O=C1NC(=O)C(Cc2cccs2)C(=O)N1` the figure was inactive: > 76.9 µM.
With `CCOC(=O)C1=C(C)OC(N)=C(C(=O)OC)C12C(=O)Nc1ccc(Br)cc12` (stereo not given) the figure was inactive: > 76.9 µM; with `CC12CN3CC(C)(CN(C1)C31CCSCC1)C2=O`, inactive: > 76.9 µM; with `CC12CN3CC(C)(CN(C1)C3c1cccs1)C2` (stereo not given), inactive: > 76.9 µM.
With `O=c1c2ccccc2nc(CN2CCCCCC2)n1-c1ccc(F)cc1` the figure was inactive: > 76.9 µM; with `CC(C)NS(=O)(=O)c1ccc(OCC(=O)N2CCN(Cc3ccccc3)CC2)c(Cl)c1`, “inactive”; with `CCOC(=O)c1c(C)n(Cc2ccco2)c2ccc(O)cc12`, inactive: > 76.9 µM.
Regarding `CN1CCN(C(=O)OC2c3nccnc3C(=O)N2c2ccc(Cl)cn2)CC1` (stereo not given), the Potency is inactive: > 76.9 µM.
With `O=C(O)C1(c2ccc(Cl)cc2)CCC1` the figure was inactive: > 76.9 µM.
Then `FC(F)(F)c1ccc2c(c1)ncn2C1CCN(Cc2nnnn2C2CCCCC2)CC1`, with inactive: > 76.9 µM.
With `O=C(Nc1cccc(Cl)c1)c1c(O)c2c(n(Cc3ccco3)c1=O)CCCC2` the figure was inactive: > 76.9 µM.
Take `Cc1ccccc1CS(=O)(=O)Cc1ccc(C(=O)N2CCC3(CC2)OCCO3)o1`: the Potency is inactive: > 76.9 µM.
Then `c1ccc2c(NC3=NCCS3)cccc2c1`, with inactive: > 76.9 µM; and `O=C(Nc1ccc2c(c1)OCO2)c1cn(Cc2ccc(F)cc2)nn1`, with inactive: > 76.9 µM; and `Cc1cccc(C)c1NC1=NCCCS1`, with inactive: > 76.9 µM.
With `O=C(CN1C(=O)CN=C(c2ccccc2)c2ccccc21)NCc1ccco1` the figure was inactive: > 76.9 µM; with `CCCNS(=O)(=O)c1ccc(OCC(=O)N2CCN(Cc3ccc4c(c3)OCO4)CC2)cc1`, inactive: > 76.9 µM.
With `O=S1(=O)CC2(N3CCOCC3)CCCCCCC21` (stereo not given) the figure was inactive: > 76.9 µM; with `C=CCn1c(O)c(C(C)=Nc2cc(OC)ccc2OC)c(=O)[nH]c1=O`, inactive: > 76.9 µM; with `COC(=O)c1ccccc1-n1c(C)nc2ccccc2c1=O`, inactive: > 76.9 µM.
As to `O=c1cccc2n1CC1CC2CN(Cc2c(Cl)cccc2Cl)C1` (stereo not given), the Potency is inactive: > 76.9 µM.
With `COc1ccccc1CN1CCN(C(=O)COc2ccccc2)CC1` the figure was inactive: > 76.9 µM; with `CSC1=NP(=S)(SC)N(C)c2nc3n(c21)CCC3` (stereo not given), inactive: > 76.9 µM; with `CC(=NCCN1CCCCC1)c1c(O)[nH]c(=O)[nH]c1=O`, inactive: > 76.9 µM.
In the case of `COc1cc(OC)c(OC)cc1CNCCc1ccc(OC)c(OC)c1`, the Potency is inactive: > 76.9 µM.
Then `CCCOc1ccccc1C1SCC(=O)Nc2c1c(=O)[nH]n2C(C)CCC` (stereo not given), with inactive: > 76.9 µM; and `CC(=NCc1cccnc1)c1c(O)n(-c2ccc(C)cc2)c(=O)[nH]c1=O`, with inactive: > 76.9 µM; and `COc1ccc2c(c1OC)C(=O)OC2c1c(O)n(Cc2ccc(F)cc2)c(=O)[nH]c1=O` (stereo not given), with inactive: > 76.9 µM.
With `O=c1[nH]c(=O)n(Cc2ccc(F)cc2)c(O)c1C=NCCN1CCCCC1` the figure was inactive: > 76.9 µM.
For the molecule `CCOC(=O)C1C(=O)N(C)C2(C)CC1c1cc(OC)ccc1O2` (stereo not given), the Potency is inactive: > 76.9 µM.
Then `O=C1NC(=O)C2(Cc3ccccc3N3CCCC32)C(=O)N1c1ccc(Cl)cc1` (stereo not given), with inactive: > 76.9 µM; and `O=P(CN1CCN(c2ccccc2)CC1)(N1CCCCC1)N1CCCCC1`, with inactive: > 76.9 µM.
As for `Cn1c(C(=O)N2CCC3(CC2)OCCO3)cc2c(=O)n(C)c3ccccc3c21`, the Potency was inactive: > 76.9 µM.
Then `Cc1cc(N2C(=O)C3CCCN3C2c2ccccc2)no1` (stereo not given), with inactive: > 76.9 µM; and `Cc1cc(CN(C)C)c(OC(=O)N(C)C)cc1C`, with inactive: > 76.9 µM; and `CC(C)OC(=O)C1C(=O)NC2(C)CC1c1ccccc1O2` (stereo not given), with inactive: > 76.9 µM.
For the molecule `O=C(Cc1ccccc1)N1CCN(C2CCCC2)CC1`, the Potency is inactive: > 76.9 µM.
Take `CC(=O)c1c(C)[nH]c(C(=O)N2CCC3(CC2)OCCO3)c1C`: the Potency is inactive: > 76.9 µM.
With `C=CCn1c(O)c(C(CC)=Nc2ccc(N(CC)CC)cc2)c(=O)[nH]c1=O` the figure was inactive: > 76.9 µM; with `Cc1ccc(S(=O)(=O)N2CN3CCN(C3)C2)cc1`, inactive: > 76.9 µM.
With `CCOC(=O)c1ccc(N2C(=O)CC(N3CCC(C#N)(c4ccccc4)CC3)C2=O)cc1` (stereo not given) the figure was inactive: > 76.9 µM; with `COc1cccc(-c2cc(C(F)(F)F)n3nc(C(=O)N4CCC5(CC4)OCCO5)cc3n2)c1`, inactive: > 76.9 µM; with `CN(Cc1ccccc1)Cc1ccccc1OC(=O)N(C)C`, inactive: > 76.9 µM.
With `O=C(c1ccc(CNS(=O)(=O)c2ccccc2)cc1)N1CCC2(CC1)OCCO2` the figure was inactive: > 76.9 µM; with `CCCCn1c(=O)c(C(=O)Nc2ccccc2S(N)(=O)=O)c(O)c2ccccc21`, inactive: > 76.9 µM.
`O=P(O)(O)COc1ccccc1O`: the Potency is inactive: > 76.9 µM.
With `C=CCn1c(O)c(C(C)=Nc2ccc(C(=O)OCC)cc2)c(=O)[nH]c1=O` the figure was inactive: > 76.9 µM; with `O=C(Cc1ccccc1)N1CCN(C/C=C/c2ccccc2)CC1`, inactive: > 76.9 µM.
Then `COc1ccc(OC)c(N2C(=O)NC(=O)C3(Cc4cc(C)ccc4N(C)C3)C2=O)c1` (stereo not given), with inactive: > 76.9 µM; and `O=C(c1ccc(CS(=O)(=O)c2ccccc2)o1)N1CCC2(CC1)OCCO2`, with inactive: > 76.9 µM.
`C=CCN1C(=O)CSc2ccc(C(=O)N3CCC4(CC3)OCCO4)cc21`: the Potency is inactive: > 76.9 µM.
Turning to `CCS(=O)(=O)N1CCCC(C(=O)N2CCC3(CC2)OCCO3)C1` (stereo not given), the Potency is inactive: > 76.9 µM.
Then `O=c1[nH]c(=O)n(Cc2ccc(F)cc2)c(O)c1C=NCc1cccnc1`, with inactive: > 76.9 µM.
